We go through 35 sequences from the supplement of paper PMC10681739.

± gives the standard deviation of the averaged measurements. Over roughly 4,100 sequences, “arbitrary fluorescence units” has its median near 780; the highest 2% begin near 22,000. The list shows a part of the results.

The assay has as its target T1, ETS1 (UniProt P14921).
T1 sequence: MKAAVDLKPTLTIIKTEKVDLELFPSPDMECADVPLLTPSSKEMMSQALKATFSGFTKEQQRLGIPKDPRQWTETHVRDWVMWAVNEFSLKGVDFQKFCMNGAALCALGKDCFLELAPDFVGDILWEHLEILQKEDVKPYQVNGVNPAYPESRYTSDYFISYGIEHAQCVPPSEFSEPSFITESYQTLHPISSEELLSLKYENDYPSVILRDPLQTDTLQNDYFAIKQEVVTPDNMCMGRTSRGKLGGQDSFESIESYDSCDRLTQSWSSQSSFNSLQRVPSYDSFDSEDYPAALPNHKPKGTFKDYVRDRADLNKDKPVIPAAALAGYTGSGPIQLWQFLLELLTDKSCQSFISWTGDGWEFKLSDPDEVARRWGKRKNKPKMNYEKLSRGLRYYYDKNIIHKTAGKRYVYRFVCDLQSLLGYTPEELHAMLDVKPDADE
In words: ETS1 binding intensity (PBM fluorescence), ETS1 alone (arbitrary fluorescence units); higher = stronger binding. Conditions: ETS1 concentration 1 nM; RUNX1 concentration 0 nM. The method in brief: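 Recombinant full-length human ETS1 was applied at 1 nM, without RUNX1, to double-stranded Agilent 4 × 180k arrays of 36-bp genomic probes carrying a mutated RUNX1 partner site, following standard PBM protocols. Detection used an anti-ETS1 antibody (Cell Signaling Technology 14069) and an Alexa488-conjugated secondary antibody, with scanning on a GenePix 4400A. Each sequence was printed as four replicate spots. Binding level is the spot fluorescence intensity, summarised across replicates and not normalised.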
For the sequence GCCCCTCTGCAGTCGCAGCCCCGCCGGAAGTGTGGC, the ETS1 binding intensity stood at 1370.

For the sequence TACTCTAAAGCACTTCAAACCTCCACTTCCTGCCCC, the ETS1 binding intensity turned out to be 2240.

Sequence GTGAGGTAGGGCTAAGTTTCTCCCCAGGAAACCCCA displayed an ETS1 binding intensity of 436.

The sequence AGGAGAACTTCCGCCCTTACTATATTAACGCCGGTA came in with an ETS1 binding intensity of 15300.

Regarding GGAGGGCTTCCTGCCCACCTCCACCTACAGCAGCTG, the ETS1 binding intensity came out at 5400.

Turning to AGCTTTTCTGAGAGCGCGGGCAGGATGTGACCTCCC, the ETS1 binding intensity turned out to be 675.

Regarding TTAAAATCCACCTGAGACTCCATTTCCCGGCGTGCT, the ETS1 binding intensity worked out at 501.

As to GGGCAGGAAGGAAGAGGGCTCCTCCCCCCAAGCTCT, the ETS1 binding intensity came out at 1030.

In turn, CAGTGAGTTGAGGGTTGGTTTCCTCTAGACTCTCGT displayed an ETS1 binding intensity of 719.

TAAATCGGAAACTCGCCGCTCAGCCTGCAGCCGCCG displayed an ETS1 binding intensity of 582.

As for CCTTCCCCTTCCGGAGAGCCCTCCGCTGGGTCCTAA, the ETS1 binding intensity was determined as 4250.

Sequence CGGGCCTGCAGCAGATCCTGGATCCGGAATCTCCCG had an ETS1 binding intensity of 445.

Regarding GTTCTTCCACGTCCGCGTTACCTACAACGGCAGTGG, the ETS1 binding intensity was found to be 816.

GTGTAACGTCCGTATGCATATCTATTTGGGGCCACC returned an ETS1 binding intensity of 499.

GCATGCTCAGTTTCGGGCGGCGTCCGGAGGAGGTGG registered an ETS1 binding intensity of 419.

For the sequence ATGACTTAGCAACATCCTGACAACCTCTACATTGTC, the ETS1 binding intensity came to 1680.

In turn, ACAAAACAAACACATCCCCCAAACCTCCAAACTACA returned an ETS1 binding intensity of 532.

Take GACCCACTGCTGTCATGCTGCTTCCTGCCCAACCCG: the ETS1 binding intensity was 2240.

With CTCCGCGCGGGCGCTGAGACTCCTGGGAAGTGTGGT, the ETS1 binding intensity came to 338.

As for ACAGGTTCAGGAAGCGGCCGTGCTTGTTAGTGGTGT, the ETS1 binding intensity is 611.2 ± 0.9.

On to TGGACACCGGGAAACTGAGCGGCCTGCTGGTCCAGA, for which the ETS1 binding intensity turned out to be 422.

In turn, GGGGCAGCTTCCGGCAGGAGAGCTCGCATTCACGGC showed an ETS1 binding intensity of 20700.

AACCCTGAGACAGCAGCAGCCACTTCCTGGGTGAGG: the ETS1 binding intensity is 1970.

With GACAGAGGAAACTAGGTGTGACAACTACAAACAGCT, the ETS1 binding intensity amounted to 620.

Regarding AACAGAGTAGGTTGTAAGGGACTTCCTGTGCATATA, the ETS1 binding intensity worked out at 3500.

GGTTGGTAGTTCGATCCCACCCAGGGACGGAAGTCG had an ETS1 binding intensity of 555.

As to CCTGTACGGAAGCTACTCTGGTTTCATGTGATTTCG, the ETS1 binding intensity amounted to 589.

Take AAAGGGAAGTTGGCGGGAGTTCAAATCCACCGGGGC: the ETS1 binding intensity is 575.

In turn, GATGAAAGAGGAAGTTCTCAAGCCACCTTGCCAGTG came in with an ETS1 binding intensity of 1950.

Regarding GCAATCTTGACCCCAACATGGAGACAGGAAATCAAA, the ETS1 binding intensity worked out at 1090.

Turning to GTTGGGTGGGGAAGTGGATGGTGCTTTTGGCAGAGG, the ETS1 binding intensity was found to be 639.

In turn, GTTTCAGTATTTCCTGGTGCGGCGTACCTCACCTAC registered an ETS1 binding intensity of 4400.

The sequence GGGGCAGCTTCCGGCAGGAGAGCTCGCATTCCCGGC had an ETS1 binding intensity of 14700.

As for AACTTCCTCCGCGCGGGGCCACTGCTACCCCAAAGG, the ETS1 binding intensity was determined as 8780.

TCCCGCCTACCTCGAAAAACGCGGAAATACGGTGGC showed an ETS1 binding intensity of 428.
